# From publication PMC4336329 (PLoS ONE, 2015)
# About 2,200 (0.71%) of roughly 310,000 compounds showed an effect of 50% or more. The effect is printed as a negative number. The list shows a part of the results.
# Target: human ether-à-go-go-related gene (hERG) potassium channel (human, UniProt Q12809)
# Assay: primary screen, population patch clamp on CHO cells stably expressing hERG
# Chain of human ether-à-go-go-related gene (hERG) potassium channel (Q12809 whole entry, looked up): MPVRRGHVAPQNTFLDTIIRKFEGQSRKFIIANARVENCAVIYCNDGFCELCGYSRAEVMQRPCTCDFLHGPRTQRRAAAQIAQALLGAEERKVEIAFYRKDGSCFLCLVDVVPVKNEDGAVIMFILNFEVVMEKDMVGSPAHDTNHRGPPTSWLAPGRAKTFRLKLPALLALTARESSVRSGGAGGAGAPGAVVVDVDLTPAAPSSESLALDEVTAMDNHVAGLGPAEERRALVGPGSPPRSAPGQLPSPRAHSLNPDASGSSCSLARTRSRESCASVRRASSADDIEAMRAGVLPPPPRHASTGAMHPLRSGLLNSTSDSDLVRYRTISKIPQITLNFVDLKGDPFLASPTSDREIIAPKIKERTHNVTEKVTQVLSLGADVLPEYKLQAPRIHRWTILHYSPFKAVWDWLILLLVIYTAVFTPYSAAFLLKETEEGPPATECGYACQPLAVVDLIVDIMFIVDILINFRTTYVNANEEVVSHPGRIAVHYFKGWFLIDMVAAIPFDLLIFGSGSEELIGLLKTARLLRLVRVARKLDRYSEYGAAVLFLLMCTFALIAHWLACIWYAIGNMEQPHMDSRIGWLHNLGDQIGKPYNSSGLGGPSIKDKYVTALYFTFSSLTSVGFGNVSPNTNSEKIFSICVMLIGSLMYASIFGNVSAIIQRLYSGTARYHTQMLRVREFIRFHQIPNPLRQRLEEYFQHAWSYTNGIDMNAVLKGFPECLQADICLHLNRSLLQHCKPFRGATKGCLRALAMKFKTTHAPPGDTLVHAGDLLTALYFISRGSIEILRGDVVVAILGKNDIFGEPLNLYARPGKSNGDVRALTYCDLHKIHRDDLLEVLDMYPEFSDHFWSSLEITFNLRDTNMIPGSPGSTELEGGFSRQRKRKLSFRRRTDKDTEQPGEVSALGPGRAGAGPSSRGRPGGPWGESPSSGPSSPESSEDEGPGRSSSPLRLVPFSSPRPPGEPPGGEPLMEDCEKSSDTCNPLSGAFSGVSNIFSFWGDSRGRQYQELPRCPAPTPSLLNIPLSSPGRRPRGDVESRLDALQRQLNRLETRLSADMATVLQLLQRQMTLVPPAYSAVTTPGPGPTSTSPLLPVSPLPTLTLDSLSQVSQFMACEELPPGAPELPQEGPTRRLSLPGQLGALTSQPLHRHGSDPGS
row,Structure (SMILES),"hERG current change (%, negative = inhibition) at 1uM"
1,CC(=O)c1cccc(CN2CCC(n3nccc3NC(=O)CCc3ccccc3)CC2)c1,2.28%
2,CCN(CC(=O)Nc1sc2c(c1C#N)CCCC2)CC(=O)NC1CCS(=O)(=O)C1 (stereo not shown),9%
3,COc1ccc(/C=N/n2nnnc2N)c(OC)c1,9.61%
4,O=C(OCc1nnc(-c2ccccc2)o1)c1cccc(-n2cnnn2)c1,3.91%
5,CCSc1nc2[nH]ncc2c(=O)[nH]1,9.41%
6,Cc1ccc2nc(N3C(=O)C(O)=C(C(=O)c4ccc(C)o4)C3c3ccc(O)cc3)sc2c1 (stereo not shown),14.1%
7,Cc1noc2ncnc(N3CCCC3)c12,7.2%
8,CCCCOC(=O)C(C)Nc1n[nH]c(=S)[nH]c1=O (stereo not shown),3.75%
9,Cn1c(C(=O)NCC2CCCO2)cc2c(=O)n(C)c3ccccc3c21 (stereo not shown),8%
10,CCOC(=O)c1cnc2ccc(Cl)cc2c1NCCN(C)C,-0.644%
11,O=C1NC2(CCCC2)N=C1c1ccc(F)cc1,-9.83%
12,Cc1ccc(-c2nnc(NCc3ccccc3)c3ccccc23)cc1,1.62%
13,CC(=O)N/C(=C/c1ccc(OC(F)F)cc1)C(=O)O,9.51%
14,CC(CC(=O)NC1CCCCC1)S(=O)(=O)c1ccc2c(c1)CCN2C(=O)C1CC1 (stereo not shown),21.8%
15,NC(=O)Cc1nc(-c2ccc(Br)cc2)cs1,9.99%
16,CCNC(=O)c1ccc(NS(=O)(=O)c2ccccc2)cc1,9.87%
17,O=C(Nc1ccc2oc(-c3cccc(F)c3)nc2c1)c1ccccc1F,13.6%
18,Cc1ccc(CNC(=O)Nc2ccccc2)n1C,17.5%
19,O=C(Cn1ccc2ccccc2c1=O)NCCC(=O)Nc1ccc2c(c1)OCCO2,8.09%
20,CCOc1ccc(CCNC(=O)COC(=O)/C=C/c2ccccc2OC)cc1OCC,14%
21,Cc1ccc(C(=O)OCC(=O)c2ccc(Cl)s2)s1,5.82%
22,O=C1CSC(c2c(F)cccc2Cl)N1c1cccc(F)c1 (stereo not shown),-0.699%

row,Structure (SMILES),"hERG current change (%, negative = inhibition) at 1uM"
1,Cc1ccc(NC(=O)CCC(=O)NNC(=O)c2ccccc2[N+](=O)[O-])c(C)c1,13.2%
2,Cc1ccc(NC(=S)Nc2ccc(F)cc2)c(C)c1,-0.309%
3,Cc1nc2ccccn2c1C(=O)NNS(=O)(=O)c1ccc(Cl)cc1,10.6%
4,COCCN(C(=O)Cc1cccs1)C(C(=O)NCc1ccc(OC)cc1)c1ccc(C)cc1 (stereo not shown),-11.3%
5,CC#CC#Cc1cccc(=O)o1,14.3%
6,CCN1CCN(c2ccc(NC(=O)c3ccc4c(c3)[nH]c(=O)n4Cc3ccc(OC)cc3)cc2)CC1,11.2%
7,Cc1cc(C(=O)N2CCC3(CC2)OCCO3)no1,15.2%
8,CC(NC(=O)Cc1ccccc1)c1cc2c(cc1Br)OCCCO2 (stereo not shown),6.49%
9,COC(=O)c1ccccc1NC(=O)c1ccc(-c2ccc(Br)cc2)o1,21.4%
10,COCc1cc(=O)[nH]c(N2CCN(Cc3ccc4c(c3)OCO4)CC2)n1,3.77%
11,CN(C)[C@@H](CO)c1nnc([C@H](Cc2ccc(O)cc2)NC(=O)C2CCNCC2)o1.Cl,5.57%
12,COC(=O)C1=C(c2cccc(OC)c2OC)C[C@@H]2CC[C@H]1N2C(=O)NCc1ccc(F)cc1,9.88%
13,Cc1cc(C(=O)NNC(=O)c2ccc(Cl)cc2Cl)c(C)o1,-8.85%
14,COc1ccc(-c2cc3ccccc3n2CC(O)CN2CCOCC2)cc1 (stereo not shown),2.37%
15,Cc1ccc(C)c(NC(=O)Cn2nc(C(F)(F)F)cc2C2CC2)c1,21.2%
16,O=C(/C=C/c1ccco1)NCC(=O)N/N=C/c1ccc(Cl)cc1,-18.5%
17,COc1ccc(-c2nc(-c3cccc([N+](=O)[O-])c3O)cc(=O)o2)cc1OC,4.37%
18,S=C(NCc1cccs1)Nc1cccc(Cl)c1Cl,-1.35%
19,CCSc1nnc(NC(=O)C2CCCCC2)s1,-6.46%
20,CC(C(=O)Nc1sc2c(c1C(=O)NCc1ccco1)CCCC2)N1C(=O)c2ccccc2C1=O (stereo not shown),15.4%
21,COC(=O)C(Cc1ccccc1)NC(=O)CCC(=O)NC(C)CCc1ccccc1 (stereo not shown),14.1%
22,Cc1cc(C)c2cc(CN(Cc3ccco3)C(=O)NCc3ccccc3)c(=O)[nH]c2c1,3.27%

row,Structure (SMILES),"hERG current change (%, negative = inhibition) at 1uM"
1,CC(=O)Nc1ccc(NC(=O)c2ccc(N(Cc3ccccc3C)S(C)(=O)=O)cc2)cc1,8.92%
2,CCCCOCCCNC(=O)N[C@H](C(=O)OC)C(C)CC (stereo partly shown),7.43%
3,CCOc1ccc(NC(=O)CC2C(=O)N(c3ccc(OC)cc3)C(=O)N2Cc2ccc(OC)cc2)cc1 (stereo not shown),2.84%
4,CCOc1ccc(Oc2ccc(Cl)cc2NC(=O)C2=COCCO2)cc1,-0.825%
5,N#Cc1ccccc1OCC(=O)N(Cc1nnc(-c2ccccc2Cl)o1)C1CC1,6.6%
6,Cc1cc(S(=O)(=O)NC2CCCC2)ccc1F,2.27%
7,CCO[C@@H]1OC(C(=O)NCc2nc3ccccc3[nH]2)=C[C@H](C(C)(C)C)[C@H]1CCCO,-2.77%
8,CC(NC(=S)Nc1ccc(OC(F)F)cc1)c1ccc(F)cc1 (stereo not shown),-0.896%
9,CN(CC(=O)Nc1ccc(N2CCOCC2)cc1)C(=O)COc1ccccc1F,3.14%
10,CCn1c2ccccc2c2nnc(SCC(=O)c3c(N)n(C)c(=O)n(C)c3=O)nc21,8.62%
11,O=C(c1cccnc1)N(Cc1ccccc1)C1(C(=O)Nc2ccccc2)CCCCC1,5.34%
12,Cc1ccc(NC2c3ccccc3C(=O)N2CCN2CCOCC2)cc1 (stereo not shown),6.03%
13,CCC1Oc2ccc(C)cc2N(CC(=O)NCC2COc3ccccc3O2)C1=O (stereo not shown),12.4%
14,Cc1cc(C)c2sc(NC(=O)CN3C(=O)CCC3=O)nc2c1,-3.92%
15,CC(C)C[C@@]12C(=O)N(c3cccc(F)c3)C(=O)N1[C@H](c1ccc(F)cc1)[C@@H]1C(=O)N(C3CCCCC3)C(=O)[C@@H]12,0.173%
16,COc1cc2c(cc1OC)CN(C(=O)COc1ccc(C)c(C)c1)CC2,13.5%
17,Cc1cc(Br)ccc1NC(=S)Nc1cccc([N+](=O)[O-])c1,7.43%
18,C=CCn1c(CCNC(=O)c2cccs2)nnc1SCC(=O)Nc1cccc(Cl)c1C,-26.1%
19,N#Cc1nc(COc2ccccc2)oc1NCCN1CCOCC1,2.09%
20,COC(=O)c1ccccc1NC(=O)c1cnn2c(C)cc(C)nc12,-20.3%
21,COc1ccc(CC(=O)NCc2ccccc2Cl)cc1S(=O)(=O)N1CCOCC1,5.71%
22,CN(C)S(=O)(=O)c1cccc(C(=O)NCc2cccs2)c1,-0.192%

row,Structure (SMILES),"hERG current change (%, negative = inhibition) at 1uM"
1,CC(C)(C)c1ccc(C(=O)NCC(=O)N2CCCCCC2)cc1,8.55%
2,Fc1cc(F)c2nc(N3CCCCC3)sc2c1,8.39%
3,O=C(CCc1ccccc1)OCCOC(=O)CCc1ccccc1,21.6%
4,CCN1CCN(C(c2cccs2)C(C)NC(=O)c2ccco2)CC1 (stereo not shown),5.54%
5,CN(C1CCCC1)C1CCN(C(=O)CNC(=O)/C=C/c2cccc(C(F)(F)F)c2)CC1,-29.5%
6,Br.Cc1csc(=Nc2ccccc2)n1Cc1ccco1,12.7%
7,Nc1nc(-c2ccccc2)[nH]c(=O)c1N=O,13.6%
8,O=C(Nc1nc(-c2ccccn2)cs1)c1ccc2c(c1)OCCO2,15%
9,O=C(C1CCC(CNc2nc(=S)[nH]c3ccccc23)CC1)N1CCN(c2ccccn2)CC1 (stereo not shown),8.27%
10,CCc1ccc(-c2cc(C)no2)cc1S(=O)(=O)N1CCN(c2cc(C)ccc2C)CC1,2.48%
11,O=C(NNC(=O)C1CCC1)c1ccc(Br)cc1,8.96%
12,C=CCN(C(=O)c1ccc(Cl)cc1)c1ccccc1C(=O)NCC(=O)O,18.1%
13,CCC(=O)N1CCCc2cc(S(=O)(=O)NCc3cccs3)ccc21,9.42%
14,O=C(Nc1ccccc1)O/N=C1\CCCCC1c1ccc([N+](=O)[O-])cc1[N+](=O)[O-] (stereo not shown),-11.9%
15,Cc1ccc(-c2nnn(CC(=O)NCc3ccccc3)n2)c(-n2cnnn2)c1,-6.6%
16,COc1ccc(-n2nc(C(=O)NCC(=O)NCCc3ccc(OC)c(OC)c3)c3ccccc3c2=O)cc1,12.7%
17,Cc1ccc2nc(SCC(=O)NCc3ccc(F)cc3)nc(=O)n2c1,-6.2%
18,CNC(=O)c1[nH]nc2c1CCc1ccccc1-2,9.24%
19,COc1cccc(-c2nc(CS(=O)(=O)CC(=O)NCCCN3CCc4ccccc4C3)c(C)o2)c1,-56.3%
20,N#Cc1ccc(S(=O)(=O)N2CCN(Cc3cccs3)CC2)cc1,-9.64%
21,Cc1ccc(CNC(=O)[C@H](C)NC(=O)C2CCN(C(=O)[C@@H](N)CC(C)C)CC2)cc1,6.77%
22,Cl.OCCN(CCO)CC(O)COc1ccc(C23CC4CC(CC(C4)C2)C3)cc1 (stereo not shown),2.27%
